From PubChem BioAssay AID1963576 (National Center for Advancing Translational Sciences (NCATS), 2024)
The campaign covered roughly 46,000 compounds. About 60 (0.1%) were called active. About 3% were inconclusive and are not listed. The call rests on the fitted dose curve; in most records, active means well fitted inhibition curve with a large enough effect; inconclusive means small, poorly fitted or top-dose-only effect; inactive means no such curve, though single readings can be large or run the other way. This is one part of the list.

Experiment: Primary qHTS assay for Inhibitors of ovarian cancer metastasis using an organotypic tumor microenvironment (TME) model. Further: nearly all actives have a fitted effect of over 65% in size.
Conditions: SKOV3ip1-GFP adhesion/invasion on 3D omental model, fluorescence; series mostly up to 45.8 µM; activity change, negative = inhibition: at the top concentration
Text: PI: Ernst Lengyel MD., Ph.D. Department of Obstetrics and Gynecology, Section of Gynecologic Oncology University of Chicago Medicine, Chicago, Illinois. The tumor microenvironment (TME) is a key determinant of metastatic efficiency. We performed a quantitative high-throughput screen (qHTS) of diverse medicinal chemistry tractable scaffolds (44,420 compounds) and pharmacologically active small molecules (386 compounds) using a layered organotypic, robust assay representing the ovarian cancer metastatic TME. This 3D model contains primary human mesothelial cells, fibroblasts, and extracellular matrix, to which fluorescently labeled ovarian cancer cells are added. Initially, 100 compounds inhibiting ovarian cancer adhesion/invasion to the 3D model in a dose-dependent manner were identified. Of those, eight compounds were confirmed active in five high-grade serous ovarian cancer cell lines and were further validated in secondary in vitro and in vivo biological assays. […] Specifically, NCGC00117362 and PP-121 inhibited ovarian cancer adhesion, invasion, and proliferation, whereas milciclib inhibited ovarian cancer invasion and proliferation. […] To evaluate the clinical potential of NCGC00117362, structure - activity relationship studies were performed. […] The three compounds identified have promise as therapeutics for prevention and treatment of ovarian cancer metastasis.
PROTOCOL TABLE (as described by Inglese J, Shamu CE and Guy RK. 2007) SEQUENCE No. (e.g., 1, 2, 3, etc.); […] (e.g., Cells, Incubation, Reagent, etc.); VALUE; DESCRIPTION. 1; Cells; 4 uL; primary human omental fibroblast, black, clear bottom, low base, 1536-well Aurora assay plate. 2; Incubation; 48 hr; 37C. 3; Cells; 3 uL; 1,200 SKOV3ip1-GFP cells. 4; Compounds; 23nL; acoustic dispenser. 5; Incubation; 2 hr; room temperature. 6; Incubation; 16 hr; 37C. 7; Wash; 5 uL; 1x PBS. 8; Fixing; 5 uL; 4% paraformaldehyde (PFA). 9; Incubation; 15 min; room temperature 10; Wash, 5 uL; 1x PBS. 11; Detection; Fluorescence, excitation filter 488 nm, emission filter 509 nm. NOTES (numbers refer to Sequence numbers above) 1. For the 1,536-well format, 40 primary human omental fibroblasts and 400 mesothelial cells were seeded with 0.02 µg fibronectin and 0.02 µg collagen type I in 4 µL of growth media (2.3 mm2; Supplementary Fig. S1A). 2. Assay plates were incubated for 48 hours at 37 C. 3. After incubation, 1,200 SKOV3ip1-GFP were seeded in 3 µL of serum-free media (growth media minus FBS) on top of primary human omental cells. 4. Compounds or controls were added to each well immediately after the addition of the cancer cells. Compounds were screened in four doses (0.36-46 µmol/L), and the plates contained the positive control (Tomatine) in eight doses (0.035-75 µmol/L) and DMSO (equal volume controls) 5 - 6. The plates were incubated at room temperature for 2 hours and then at 37 degrees C for 16 hours. 7 - 10. Following incubation, the media were aspirated and each well washed with PBS (5 µL) and then fixed with 4% paraformaldehyde (PFA; 5 µL). After 15 minutes, the PFA solution was aspirated, PBS (5 µL) was added. 11. The number of GFP-labeled cells analyzed using a fluorescent cytometer TTP LabTech Acumen eX3 using 488 nm excitation filter and 509 nm emission filter. Data was normalized to the DMSO treated for negative and Tomatine treated wells for positive control. REFERENCES: Inglese J, Shamu CE and Guy RK, Reporting data from high throughput screening of small molecule libraries, Nature Chemical Biology, 2007, 3(8): 438-441. doi.org/10.1038/nchembio0807-438. Yasgar A, Shinn P, Jadhav A, Auld DS, Michael S, Zheng W, Austin CP, Inglese J and Simeonov A, Compound Management for Quantitative High-Throughput Screening. J. Assoc. Lab. Auto., 2008, 13: 79-89. doi: 10.1016/j.jala.2007.12.004.

Question: With N#C/C(=C\c1ccc(O)cc1)C(=O)NCC1CCCO1 (centres undefined) as the compound, how does the “outcome” value read?
Answer: inactive

Question: Which “activity change, negative = inhibition” value does the source give for O=C(NCCc1ccccc1)c1c[nH]c2ccc(S(=O)(=O)Nc3ccc(F)cc3F)cc2c1=O here?
Answer: inactive: -4.67%

Question: For CCCC(=O)Nc1cc2nn(-c3ccc(OC)cc3)nc2cc1C, which “activity change, negative = inhibition” value is on record?
Answer: inactive: 5.96%

Question: Which “activity change, negative = inhibition” value does the source give for Cc1ccc(C)c(OCC(=O)Nc2sc3c(c2C#N)CCCC3)c1C here?
Answer: inactive: -4.43%

Question: Which “outcome” value does the source give for CCC1CCCCN1CCCNC(=O)c1ccc2c(c1)c(C)c(C)n2CC (centres undefined) here?
Answer: inactive

Question: With CCOC(=O)c1c(Nc2ccc(C)c(C)c2)nnc(-c2ccccc2)c1-c1ccccc1 as the compound, how does the “outcome” value read?
Answer: inactive

Question: With COc1cccc(NC(=O)C2CCCN(c3ncnc4onc(-c5ccc(F)cc5)c34)C2)c1 (centres undefined) as the compound, how does the “activity change, negative = inhibition” value read?
Answer: inactive: 1.87%

Question: For COc1ccc(C(=O)CC2(O)C(=O)N(Cc3ccccc3)c3ccc(Br)cc32)cc1 (centres undefined), which “activity change, negative = inhibition” value is on record?
Answer: inactive: -6.33%

Question: With CCc1ccc(C(=O)c2cn(CC(=O)NCCc3ccccc3)c3nc(C)ccc3c2=O)cc1 as the compound, how does the “activity change, negative = inhibition” value read?
Answer: inactive: 1.43%

Question: With COc1ccc(CNC(=O)CN2N=C(c3ccc(Cl)cc3)CCC2=O)cc1 as the compound, how does the “activity change, negative = inhibition” value read?
Answer: inactive: -1.33%

Question: Which “activity change, negative = inhibition” value does the source give for COc1ccc(-c2nn(C)c3sc(C(=O)NCCN(C)C)cc23)cc1OC here?
Answer: inactive: 2.69%

Question: With Cc1cc(C)c(NC(=O)Cn2c(=O)n(CCC(C)C)c(=O)c3cccnc32)c(C)c1 as the compound, how does the “activity change, negative = inhibition” value read?
Answer: inactive: 3.19%

Question: Which “activity change, negative = inhibition” value does the source give for Cc1ccc(C2=Nc3ccccc3N=C(c3ccc(F)cc3)C2)c(O)c1 here?
Answer: inactive: 5.02%

Question: Which “outcome” value does the source give for CCN(c1ccccc1C)S(=O)(=O)c1nnc(NC(=O)c2ccc(OC)c(OC)c2)s1 here?
Answer: inactive

Question: With Cc1ccc(N2CC(NC(=O)CCCc3ccccc3)CC2=O)cc1 (centres undefined) as the compound, how does the “activity change, negative = inhibition” value read?
Answer: inactive: -5.41%

Question: With O=C(NCCc1ccccc1)c1ccc2c(c1)N(Cc1ccc(Cl)cc1)C(=O)c1ccccc1S2(=O)=O as the compound, how does the “outcome” value read?
Answer: inactive

Question: With COc1ccc(Cn2c(SCc3ccc(C(=O)NCc4ccc(C)cc4)cc3)nc3cccnc32)cc1 as the compound, how does the “activity change, negative = inhibition” value read?
Answer: inactive: 2.05%

Question: For O=C(NCCSc1c[nH]c2ccccc12)c1ccc(Cl)cc1, which “activity change, negative = inhibition” value is on record?
Answer: inactive: 10.3%

Question: With COc1ccc(CNC(=O)c2ccc(CN3C(=O)C(C)=C(c4ccc(C)cc4)S3(=O)=O)cc2)cc1 as the compound, how does the “activity change, negative = inhibition” value read?
Answer: inactive: -2.6%

Question: Which “activity change, negative = inhibition” value does the source give for Cc1cc(O)c2c(C)c(CC(=O)NCc3ccccc3Cl)c(=O)oc2c1 here?
Answer: inactive: -0.396%

Question: Which “activity change, negative = inhibition” value does the source give for Cc1ccc(Cl)cc1N1CCN(c2nc3ccc(C(=O)c4ccccc4)cc3n3cnnc23)CC1 here?
Answer: inactive: 9.75%

Question: Which “activity change, negative = inhibition” value does the source give for O=C(Cn1nc(Cc2cccnc2)c2ccccc2c1=O)N1CCN(c2ccccc2F)CC1 here?
Answer: inactive: -1.53%

Question: Which “activity change, negative = inhibition” value does the source give for CCc1nc(SC)ncc1C(=O)NCc1cccc(Br)c1 here?
Answer: inactive: -18.1%

Question: For COc1ccc(CNC(=O)c2cc(-c3ccc(Br)s3)nc3ccccc23)c(OC)c1, which “activity change, negative = inhibition” value is on record?
Answer: inactive: -5.84%

Question: With CC1=C(C(=O)NCc2cccc(F)c2)C2(CCCCCC2)OC1=O as the compound, how does the “outcome” value read?
Answer: inactive

Question: With Cc1ccc(-n2ncc(C(=O)Nc3ccc4c(c3)OCCO4)c2C2CCN(C(=O)OC(C)(C)C)CC2)cc1C as the compound, how does the “activity change, negative = inhibition” value read?
Answer: inactive: 27.8%

Question: For CCOc1ccccc1CNC(=O)Cn1c(=O)c2cccn2c2ccc(F)cc21, which “outcome” value is on record?
Answer: inactive

Question: With COc1ccccc1NC(=O)CC1Sc2ccc(C(F)(F)F)cc2NC1=O (centres undefined) as the compound, how does the “activity change, negative = inhibition” value read?
Answer: inactive: -19.7%

Question: Which “activity change, negative = inhibition” value does the source give for Cc1c(O)cccc1C(=O)N[C@@H](CSc1ccccc1)[C@H](O)CN1C[C@H]2CCCC[C@@H]2C[C@@H]1C(=O)NC(C)(C)C here?
Answer: inactive: 2.03%

Question: With COCCN1CCc2nc(SCC(=O)Nc3ccc(C)c(Cl)c3)[nH]c(=O)c2C1 as the compound, how does the “activity change, negative = inhibition” value read?
Answer: inactive: 7.48%

Question: Which “outcome” value does the source give for COc1ccccc1N1CCN(C(=O)Cn2ncc3c2-c2cc(C)ccc2OC3)CC1 here?
Answer: inactive

Question: For COc1ccc(Nc2nc3ccc(C)cc3nc2-n2nc(C)cc2C)cc1Cl, which “activity change, negative = inhibition” value is on record?
Answer: inactive: 11.8%

Question: With CC1CCCCN1Cc1c(O)ccc2c(=O)c(-c3ccc(Cl)cc3)c(C(F)(F)F)oc12 (centres undefined) as the compound, how does the “activity change, negative = inhibition” value read?
Answer: inactive: -2.33%

Question: Which “activity change, negative = inhibition” value does the source give for CCOc1ccc(C(=O)Nc2ccc3c(c2)CCCN3S(=O)(=O)c2ccc(C)cc2)cc1 here?
Answer: inactive: 3.89%

Question: Which “activity change, negative = inhibition” value does the source give for CC1=C(C(=O)OCc2ccc(C)cc2)C(c2ccccc2C(F)(F)F)CC(=O)N1 (centres undefined) here?
Answer: inactive: 3.89%

Question: For Cc1ccc(OCCSc2nc3ccccc3n2CC(=O)N2CCOCC2)cc1, which “activity change, negative = inhibition” value is on record?
Answer: inactive: -11.4%

Question: With CCOC(=O)c1noc2ncn(CC(=O)Nc3ccc(F)cc3Cl)c(=O)c12 as the compound, how does the “activity change, negative = inhibition” value read?
Answer: inactive: 12.1%

Question: Which “activity change, negative = inhibition” value does the source give for COc1ccc(-c2onc(C)c2C)cc1S(=O)(=O)NCc1cccs1 here?
Answer: inactive: 2.11%

Question: Which “activity change, negative = inhibition” value does the source give for CCOc1ccc(NC(=O)CSc2nnc3scc(-c4ccccc4)n23)cc1 here?
Answer: inactive: 0.388%

Question: With COC(=O)c1c(NC(=O)c2ccc(Cl)c(Cl)c2)sc2c1CCCC2 as the compound, how does the “activity change, negative = inhibition” value read?
Answer: inactive: -12.4%

Question: With CCOC(=O)c1sc2ncn(CC(=O)Nc3ccc(F)cc3F)c(=O)c2c1C as the compound, how does the “activity change, negative = inhibition” value read?
Answer: inactive: 2.12%

Question: For CCOc1ccccc1NC(=O)Cn1c(=O)n(Cc2ccc(OC)cc2)c(=O)c2oc3ccccc3c21, which “outcome” value is on record?
Answer: inactive

Question: For COc1ccc(OC)c(CNC(=O)CCCn2c(=O)c3cccn3c3cccnc32)c1, which “activity change, negative = inhibition” value is on record?
Answer: inactive: 3.56%

Question: With Cc1oc(-c2ccccc2F)nc1Cn1c(SCc2cccc(C(F)(F)F)c2)nc2ccncc21 as the compound, how does the “activity change, negative = inhibition” value read?
Answer: inactive: -7.38%

Question: For O=C(Nc1ccccc1F)c1cnc(N2CCCCC2)c2ccccc12, which “activity change, negative = inhibition” value is on record?
Answer: inactive: -8.98%

Question: Which “activity change, negative = inhibition” value does the source give for Cc1ccc(C(C)C)c(OCC(=O)Nc2cc(-c3nc4ccccc4[nH]3)ccc2C)c1 here?
Answer: inactive: -14.6%

Question: With COc1ccccc1NC(=O)c1cc2c(=O)n(Cc3cccs3)ccc2nc1C as the compound, how does the “activity change, negative = inhibition” value read?
Answer: inactive: 3.9%

Question: Which “activity change, negative = inhibition” value does the source give for Cc1cccc(-n2c(C)cc(C(=O)C(=O)Nc3nncs3)c2C)c1 here?
Answer: inactive: 0.184%

Question: For Cc1cc2c(cc1S(=O)(=O)Nc1ccc(C(C)C)cc1)OCCN2C, which “activity change, negative = inhibition” value is on record?
Answer: inactive: -17.2%
